Measurements from patent US7718668B2, “Salts of 6-heterocycle substituted hexahydrophenanthridine derivatives” (Nycomed GmbH, priority 2005, dated 2010).
Read-outs that look alike come from different tables or passages of the source. Some values that stand alone complete this part of the results.

melting point (ethandisulfonate salt): 233 °C
melting point (ethansulfonate salt): 216 °C
Structure (SMILES): CCOc1cc2c(cc1OC)C(c1ccc(OC)nc1OC)=N[C@@H]1CC[C@@H](O)C[C@H]21 [compound 8, (2R,4aR,10bR)-6-(2,6-Dimethoxy-pyridin-3-yl)-9-ethoxy-8-methoxy-1,2,3,4,4a, 10b-hexahydro-phenanthridin-2-ol]
